Measured values reported in PubChem BioAssay AID2675 (National Center for Advancing Translational Sciences (NCATS), 2010).
Values joined by “and” are separate entries in the source; they are usually repeats but may differ in a detail not shown here. Identical values can stand only once. Screen size: about 280,000 compounds; about 100 (0.036%) were called active. Inconclusive means that the source gave no clear call. Such entries were picked first, then a sample of the others. Calls follow the shape of the dose curve; as a rule, active = well fitted inhibition curve with a large enough effect in the signal ratio, with a control signal flat (not every such curve was filed as active); inconclusive = small, poorly fitted or top-dose-only effect, or effect the other way, or a change in a side signal; inactive = no such curve, though single readings can be large or run the other way; the % refers to the signal ratio. A potency beside an inconclusive call is a rough fit, not a confirmed value. A note “side channel” means that the fit belongs to a control or component signal, not to the main read-out.

Molecular target: Muscleblind-like protein 1 (Homo sapiens) (UniProt Q9NR56)
UniProt Q9NR56, sequence (Q9NR56 whole entry, looked up): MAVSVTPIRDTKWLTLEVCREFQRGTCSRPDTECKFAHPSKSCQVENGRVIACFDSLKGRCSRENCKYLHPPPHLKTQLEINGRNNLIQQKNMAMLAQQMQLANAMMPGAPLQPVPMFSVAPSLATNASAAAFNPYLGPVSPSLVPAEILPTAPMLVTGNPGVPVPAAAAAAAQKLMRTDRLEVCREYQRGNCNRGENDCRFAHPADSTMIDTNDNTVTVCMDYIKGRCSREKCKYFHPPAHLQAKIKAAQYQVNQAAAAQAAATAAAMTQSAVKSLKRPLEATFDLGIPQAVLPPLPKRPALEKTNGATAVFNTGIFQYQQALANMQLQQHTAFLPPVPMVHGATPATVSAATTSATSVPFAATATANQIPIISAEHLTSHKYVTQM
Assay: qHTS Assay for Inhibitors of MBNL1-poly(CUG) RNA binding
Conditions: TR-FRET MBNL1-His/biotin-(CUG)12 binding, 665/545 ratio; activity change, negative = inhibition: at 57.5 µM (top of the series)
In short: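 Compound titration spanned 92 nM–58 uM against the MBNL1-His/biotin-(CUG)12 complex. After 60 min at room temperature with 5 nM streptavidin-XL665 and 0.055 ng/ul terbium anti-His, ratiometric 665/545 nm emission (Ex 340 nm) normalized to controls.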
% is scaled to controls: 0 for no effect and ±100 for the full control effect; potency is read from the fitted curve at half-maximal effect; tags tell the direction and shape of the fitted curve or compound fluorescence and quenching.

Row | SMILES | Potency | activity change, negative = inhibition
1 | COc1ccc(NC(=O)C(Cl)=C(Cl)Cl)cn1 | inactive | –
2 | CCN(CC)CCCN1C=C2C(=O)C(C)(OC(=O)CCc3ccccc3)C(=O)C=C2C=C1c1ccc(C#N)cc1 (stereo not given) | inconclusive: 15.8 µM [quencher, side channel, single point] | –
3 | CCOc1ccccc1NC(=O)CSc1nnc2ccc(-c3cccnc3)nn12 | inconclusive: 25.1 µM [quencher, side channel, single point] | –
4 | O=[N+]([O-])c1cccc(CSC2=NCCN2S(=O)(=O)c2ccccc2)c1 | inconclusive: 17.8 µM [quencher, side channel, partial curve] | –
5 | COCCNC(=O)/C(C#N)=C/c1c(N2CC(C)OC(C)C2)nc2ccccn2c1=O (stereo not given) | inconclusive: 14.1 µM [quencher, side channel, partial curve] | –
6 | Cc1ccc[n+](-c2nc3ccccc3nc2C(=C=[N-])C#N)c1 | inconclusive: 17.8 µM [quencher, side channel, partial curve] and inconclusive: 15.8 µM [quencher, side channel, partial curve] | –
7 | Oc1ccc(NC(=S)N=Nc2c(O)[nH]c3ccccc23)cc1 | inconclusive: 25.1 µM [quencher, side channel, partial curve] | –
8 | Cc1cccc(NC(=S)N2CCCCC2)c1 | inactive | –
9 | CC1CCN(C(=O)CSc2nnc3c(n2)[nH]c2ccccc23)CC1 | inconclusive: 22.4 µM [quencher, side channel, single point] | –
10 | O=C(c1cccc(C(F)(F)F)c1)C1CCCN(C(=O)CN2CCCC2=O)C1 (stereo not given) | inconclusive: 31.6 µM [quencher, side channel, single point] | –
11 | O=C1c2cccc3cc([N+](=O)[O-])cc(c23)C(=O)N1/N=C/c1ccc(O)cc1O | inconclusive: 17.8 µM [quencher, side channel, partial curve] | –
12 | CCOC(=O)c1nn(-c2ccccc2C)c(=O)c(C#N)c1C | inconclusive: 17.8 µM [quencher, side channel, partial curve] | –
13 | COc1cc([N+](=O)[O-])cc(/C=N/NC(=O)C(O)(c2ccccc2)c2ccccc2)c1O | inconclusive: 39.8 µM [quencher, side channel, single point] | –
14 | CCCCN1CCCC1CNC(=O)c1cc(C#N)c2ccccc2c1OC (stereo not given) | inconclusive: 0.891 µM [quencher, full curve, poor fit] | –
15 | O=C(CCN1C(=O)S/C(=C\c2ccc(F)cc2)C1=O)Nc1ccc(C(=O)O)c(O)c1 | inconclusive: 11.2 µM [quencher, side channel, partial curve] | –
16 | COc1ccc(N/C=C/c2nc(SC)nnc2C)cc1 | inconclusive: 15.8 µM [quencher, side channel, partial curve] | –
17 | CCOC(=O)Cn1c(-c2cccnc2)nc(-c2ccccc2)c1-c1ccccc1 | inactive | –
18 | Cc1ccc(/C=N/Nc2ccc(C(=O)O)cc2)s1 | inconclusive: 22.4 µM [quencher, side channel, single point] | –
19 | CC(C)Nc1nc(NC(C)C)nc(OCCOC(=O)c2ccccc2)n1 | – | inactive: -4.95% [at 11.5 µM]
20 | COc1ccc2[nH]c3c(NCCC4=CCCCC4)ncnc3c2c1 | inactive | –

Row | SMILES | Potency | activity change, negative = inhibition
21 | O=C(CNC(=O)C1CCCCC1)OCc1cc(=O)oc2ccc3ccccc3c12 | inactive | –
22 | Nc1nc(CSC(=S)N2CCOCC2)nc(Nc2ccc(F)cc2)n1 | inactive | –
23 | CC1=C(C(=O)Nc2ccccc2)C(c2cccs2)C(C#N)=C(SCC#N)N1 (stereo not given) | inconclusive: 25.1 µM [quencher, side channel, single point] | –
24 | CC(C)OC(=O)/C(C#N)=C/c1cn(C)c2ccccc12 | inconclusive: 11.2 µM [quencher, side channel, partial curve] | –
25 | COc1ccc2[nH]cc(/C=C/c3cc[n+](C)cc3)c2c1 | inconclusive: 12.6 µM [quencher, side channel, partial curve] | –
26 | Cc1nn(-c2ccccc2)c2c1C(c1ccco1)C(C#N)=C(N)O2 (stereo not given) | inconclusive: 15.8 µM [quencher, side channel, partial curve] | –
27 | O=C(O)c1cccc(-c2ccc(/C=N/n3cnnc3)o2)c1 | inconclusive: 15.8 µM [quencher, side channel, partial curve] | –
28 | CC(=O)N/N=C/c1ccccc1OCCOc1cccc(C)c1 | inactive | –
29 | O=C(O)Cc1sc(N/N=C\c2ccncc2)nc1-c1ccccc1 | inconclusive: 20 µM [quencher, side channel, partial curve] | –
30 | CCOC(=O)C(C)n1cnc2c(nnn2Cc2ccc(C)cc2)c1=O (stereo not given) | inconclusive: 35.5 µM [quencher, side channel, single point] | –
31 | O=C1N/C(=N/N=C/c2ccc(F)cc2)SC1c1ccccc1 (stereo not given) | inactive | –
32 | CN(C)c1ccc(NS(=O)(=O)c2cccc(Cl)c2)cc1 | inconclusive: 22.4 µM [quencher, side channel, partial curve] | –
33 | O=[N+]([O-])c1ccc(O)c(/C=N/Nc2nn[nH]n2)c1 | inconclusive: 39.8 µM [quencher, single point] | –
34 | COc1cc2c(cc1OC)C(c1ccc(Cl)cc1)=NCC2 | inconclusive: 17.8 µM [quencher, side channel, partial curve] | –
35 | O=C(CCO)c1ccc(O)cc1 | active: 25.1 µM | –
36 | CC(C)c1cc(CNC(=O)C2CCC(=O)N(CCc3ccc(Cl)cc3)C2)on1 (stereo not given) | inactive | –
37 | COc1ccc(CN2CCC(=O)N([C@H](CO)c3ccccc3)CC2)cc1 | inconclusive: 0.141 µM [quencher, side channel, full curve, poor fit] | –
38 | COc1ccc(NS(=O)(=O)c2cccc3nonc23)c(OC)c1 | inconclusive: 2.24 µM [quencher, side channel, partial curve] | –
39 | CCc1ccc(N=C2N=C(N)c3ccccc32)cc1 | inconclusive: 31.6 µM [quencher, side channel, partial curve] | –
40 | Cc1nnc(-c2cccc(Br)c2)c2cn(-c3ccccc3Cl)nc12 | inactive | –

Row | SMILES | Potency | activity change, negative = inhibition
41 | O=C(N/N=C/c1ccc(Br)o1)c1cc([N+](=O)[O-])cc([N+](=O)[O-])c1 | inconclusive: 2.51 µM [quencher, side channel, full curve] | –
42 | CCC(=O)Nc1cc(ON=C(C)C)cc([N+](=O)[O-])c1 | – | inactive: 1.09% [at 11.5 µM]
43 | CCOC(=O)c1c(NC(NC(C)=O)C(Cl)(Cl)Cl)sc(C(C)=O)c1C (stereo not given) | inconclusive: 28.2 µM [quencher, side channel, single point] | –
44 | O=C(CCc1ccccc1)NCCSCc1c(F)cccc1Cl | inconclusive: 0.447 µM [fluorescent, side channel, single point] | –
45 | O=C(CN1CCN(c2ccccn2)CC1)N1c2ccccc2CCc2ccccc21 | inconclusive: 79.4 µM [inhibitor, single point] | –
46 | Cc1oc(C(C)(C)C)cc1C(=O)Nc1cccc(/C=C\C(=O)O)c1 | inconclusive: 39.8 µM [quencher, side channel, single point] | –
47 | COCCCNC(=O)Cn1cc(C(=O)C2CC2)c2ccccc21 | inconclusive: 0.398 µM [fluorescent, side channel, single point] | –
48 | C[C@H]1C[C@@H]2[C@H]([C@@H](O)C[C@@]3(C)[C@H]2CC[C@]3(O)C(=O)CO)[C@@]2(C)C=CC(=O)C=C12 | inconclusive: 100 µM [inhibitor, partial curve, poor fit] | –
49 | O=C(CCN1CCN(Cc2ccccc2)CC1)NNC(=O)Nc1cccc([N+](=O)[O-])c1 | inconclusive: 22.4 µM [quencher, side channel, partial curve] | –
50 | Cc1ccc(NC(=O)CN(C)S(=O)(=O)c2cccc3nsnc23)cc1C | inconclusive: 12.6 µM [quencher, side channel, partial curve] | –
51 | O=S(=O)(c1cccc2nsnc12)N1CCc2ccccc2C1 | inconclusive: 15.8 µM [quencher, side channel, partial curve] | –
52 | COc1ccc(NC(=O)c2ccc(COc3ccccc3OC)o2)cc1OC | inactive | –
53 | CCn1c(C)cc(/C=C2/NC(=O)N(c3ccccc3)C2=O)c1C | inconclusive: 15.8 µM [quencher, side channel, partial curve] | –
54 | CC1(C)CC(=O)C(N=Nc2cc3c(cc2[N+](=O)[O-])OCCO3)=C(O)C1 | inconclusive: 2 µM [quencher, side channel, full curve] | –
55 | COc1ccc(OC)c(-c2csc(NC(=O)Cc3ccc(F)cc3)n2)c1 | inactive | –
56 | CCOc1ccc(Nc2cc(C)nc3nc(C)nn23)cc1 | inconclusive: 126 µM [inhibitor, partial curve, poor fit] | –
57 | Cc1nc(-c2coc3cc(O)c(C)cc3c2=O)cs1 | inconclusive: 50.1 µM [inhibitor, partial curve] | –
58 | COc1ccc(N(C)C(=O)CCS(=O)(=O)c2cccc3nsnc23)cc1 | inconclusive: 15.8 µM [quencher, partial curve] | –
59 | CCOC(=O)/C(=N\Nc1ccccc1)S(=O)(=O)c1ccccc1 | inconclusive: 25.1 µM [quencher, side channel, single point] | –
60 | CCOc1ccc(N=C2C(=O)N(CN3CCOCC3)c3ccccc32)cc1 | inconclusive: 25.1 µM [quencher, side channel, partial curve] | –
